Test results published in PubChem BioAssay AID485341 (National Center for Advancing Translational Sciences (NCATS), 2010).
About 1,700 (0.52%) of roughly 330,000 compounds were called active. This list was built around the results that the source calls inconclusive (neither active nor inactive); the mix of calls is not that of the screen. Calls come from the whole dose curve; as a rule, active = well fitted inhibition curve with a large enough effect; inconclusive = small, poorly fitted or top-dose-only effect; inactive = no such curve, though single readings can be large or run the other way. Potencies beside an inconclusive call are fits to weak or partial responses and may not hold up.

Target: Beta-lactamase (Escherichia coli (strain K12)) (UniProt P00811)
Test: qHTS Inhibitors of AmpC Beta-Lactamase (assay without detergent); note: nearly all actives have a fitted effect of over 20% in size
Conditions: AmpC nitrocefin hydrolysis, absorbance 480 nm, 0.0001% Triton; series mostly up to 57.1 µM
Procedure: NIH Molecular Libraries Probe Production Network [MLPCN] NIH Chemical Genomics Center [NCGC] Assay Provider: Professor Brian Shoichet, UCSF Assay Overview: This aggregation profiling approach exploits the sensitivity of aggregate formation to detergent. Inhibition of b-lactamase is measured in the presence and absence of 0.01% Triton X-100. This particular assay had the prescence of 0.01% Triton X-100. See Pubchem assay "Promiscuous and Specific Inhibitors of AmpC Beta-Lactamase (assay without detergent)" for related screen. Compounds that inhibit only in the absence of detergent are considered likely promiscuous aggregators. A screen of 1,030 compounds was performed in Brian Shoichet's lab in 96-well format. AmpC activity was measured by following the absorbance at 480 nm. Nitrocefin is a chromogenic substrate: while nitrocefin is yellow (lmax 390 nm), the product of its hydrolysis is red (lmax 486 nm, 17,000 M-1). AmpC beta lactamase was provided by Shoichet Lab, UCSF.
Buffer: 20 mM phosphate buffer, pH 7.0 Triton X-100: No Detergent screen: 0.0001%, Detergent screen: 0.01%. Reagents/Controls: Buffer in columns 3 and 4 as negative control (no enzyme). 5.3 nM AmpC in columns 1, 2, 5-48. Titration of UCSF compound 9 control (from 10 mM, then 1:2) pin-transferred to column 2. Column 1 is neutral (100% activity). Assay Steps: Six uL of reagents were dispensed to 1536-well Greiner black clear bottom plates. Compounds and controls (23 nL) were transferred via Kalypsys PinTool. The plates were incubated for 15 min at room temperature, and then 2 uL of 800 uM solution of nitrocefin was added to start the reaction. The plates were immediately transferred to and read every 20 seconds for 4 min on ViewLux (Perkin-Elmer) High-throughput CCD imager using 480 nm absorbance protocol. During dispense, reagent bottles were kept submerged into 4 deg C water bath. Keywords: NIH Roadmap, MLSCN, MLI, MLSMR, qHTS, NCGC, AmpC Beta-Lactamase, Aggregation
Potency is the fitted concentration of half-maximal effect; tags give direction and shape of the fitted curve.

UniProt P00811, sequence (P00811 whole entry, looked up): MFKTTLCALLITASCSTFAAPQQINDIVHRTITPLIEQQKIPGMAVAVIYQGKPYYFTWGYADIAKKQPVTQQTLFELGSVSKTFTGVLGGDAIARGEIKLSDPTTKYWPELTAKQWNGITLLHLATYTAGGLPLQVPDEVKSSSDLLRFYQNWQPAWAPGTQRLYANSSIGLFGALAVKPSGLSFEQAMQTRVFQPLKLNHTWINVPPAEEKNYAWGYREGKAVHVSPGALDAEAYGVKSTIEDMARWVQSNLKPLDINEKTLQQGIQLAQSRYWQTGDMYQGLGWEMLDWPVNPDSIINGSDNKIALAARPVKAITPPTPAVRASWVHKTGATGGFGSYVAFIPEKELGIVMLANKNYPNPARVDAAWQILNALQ

Q: Which Potency does the source give for Cc1cc(C)n2nc(C(=O)OCC(=O)c3ccc(F)cc3)nc2n1 here?
A: inconclusive: 31.6 µM [inhibitor, single point]

Q: COc1ccccc1NS(=O)(=O)c1cc(NC(=O)c2ccc(=O)[nH]c2)ccc1N1CCOCC1 was tested. Which Potency did it give?
A: active: 14.1 µM

Q: With N#C/C(=C/c1ccccc1[N+](=O)[O-])C(=O)NCc1ccco1 as the compound, how does the Potency read?
A: inactive

Q: With CCS(=O)(=O)N1CCC(C(=O)NC2CCCCCCC2)CC1 as the compound, how does the Potency read?
A: inconclusive: 6.31 µM [inhibitor, single point]

Q: Which Potency does the source give for COc1ccc(NC(=O)CSCC(=O)Nc2ccc(S(=O)(=O)N3CCCCC3)cc2)cc1 here?
A: inconclusive: 28.2 µM [inhibitor, single point]

Q: Which Potency does the source give for NC(=O)c1cccnc1Nc1ccccc1F here?
A: inactive

Q: For Cc1sc2nc(C3CC3)nc(SCC(=O)N3CCc4ccccc4C3)c2c1C, which Potency is on record?
A: inconclusive: 3.55 µM [inhibitor, single point]

Q: Which Potency does the source give for Cc1csc(=O)n1CC(=O)OCC(=O)c1ccc(Br)cc1 here?
A: inconclusive: 28.2 µM [inhibitor, single point]

Q: With O=C(N/C(=C\c1cccs1)C(=O)N1CCCCCC1)c1ccccc1 as the compound, how does the Potency read?
A: inactive

Q: O=C(c1cc([N+](=O)[O-])ccc1Cl)N1c2ccccc2Sc2ccccc21 was tested. Which Potency did it give?
A: inconclusive: 1.78 µM [inhibitor, full curve, poor fit]

Q: Which Potency does the source give for CN1CC(=O)NC1=NC(=O)C12CC3CC(CC(C3)C1)C2 here?
A: inactive

Q: For Cc1nc(Nc2ccccc2)sc1C(=O)Nc1ccccc1, which Potency is on record?
A: inconclusive: 4.47 µM [inhibitor, full curve]

Q: CCCCC1=CC2=CC(=O)C(C)(OC(=O)CCc3ccccc3)C(=O)C2=CO1 (stereo unspecified) was tested. Which Potency did it give?
A: inconclusive: 20 µM [inhibitor, partial curve]

Q: COc1cccc(C2=NN(C(=O)CCCC(=O)O)C(c3cccs3)C2)c1 (stereo unspecified) was tested. Which Potency did it give?
A: inactive

Q: CCN(CC)CCn1c2c(c(SCC(=O)Nc3ccc(C)c(F)c3)nc1=O)CCC2 was tested. Which Potency did it give?
A: inconclusive: 39.8 µM [inhibitor, single point]

Q: For Cc1c(C(=O)OCC(=O)Nc2cccc(S(N)(=O)=O)c2)oc2c1ccc1ccccc12, which Potency is on record?
A: active: 11.2 µM

Q: How did the Potency turn out when COc1ccc(/C=N/NC(=O)c2ccc(NC(=O)c3ccccc3Br)cc2)cc1 was run?
A: inconclusive: 39.8 µM [inhibitor, single point]

Q: For O=C(CSc1nnc(CNC(=O)c2ccco2)o1)Nc1ccc(F)cc1, which Potency is on record?
A: inactive

Q: For O=[N+]([O-])c1cccc(NC(=S)N2CCN(S(=O)(=O)c3ccccc3)CC2)c1, which Potency is on record?
A: active: 22.4 µM

Q: Which Potency does the source give for CCc1noc(C)c1C(=O)N1CCN(S(=O)(=O)c2ccc(C(C)C)cc2)CC1 here?
A: inconclusive: 39.8 µM [inhibitor, single point]

Q: CCn1c(C)nc2cc(C(=O)NNC(=O)Nc3cccc(Cl)c3)ccc21 was tested. Which Potency did it give?
A: inconclusive: 22.4 µM [inhibitor, single point]

Q: With Cc1ccc(S(=O)(=O)N(C)c2ccc(OCC(=O)Nc3nnc(C4CC4)s3)cc2)cc1 as the compound, how does the Potency read?
A: active: 14.1 µM

Q: How did the Potency turn out when COc1cccc(C2NC(=S)NC3=C2CCc2ccccc23)c1 (stereo unspecified) was run?
A: inactive

Q: How did the Potency turn out when COc1cc(C(=O)NNC(=O)NC2CCCCC2)cc(OC)c1OC was run?
A: active: 0.251 µM

Q: Which Potency does the source give for Cc1c(S(=O)(=O)N2CCCCC2)c(=O)n(C)c(=O)n1C here?
A: inconclusive: 39.8 µM [inhibitor, single point]

Q: With CCCC(C)C(=O)Nc1nc(C)c(-c2csc(Nc3ccccc3OC)n2)s1 (stereo unspecified) as the compound, how does the Potency read?
A: inactive

Q: How did the Potency turn out when COCCOC(=O)C1=C(C)Nc2ncnn2C1c1ccccc1 (stereo unspecified) was run?
A: inconclusive: 5.01 µM [inhibitor, single point]

Q: Cc1ccc(Oc2nc(-c3ccccc3)ncc2S(=O)(=O)c2ccc(C)cc2)cc1 was tested. Which Potency did it give?
A: inconclusive: 6.31 µM [inhibitor, single point]

Q: For CC1CCCCC1NC(=O)COC(=O)c1c2c(nc3ccccc13)/C(=C/c1ccco1)CC2 (stereo unspecified), which Potency is on record?
A: active: 15.8 µM

Q: How did the Potency turn out when CCOC(=O)C1CCCN(c2c(NCCCN(CC)c3ccccc3)c(=O)c2=O)C1 (stereo unspecified) was run?
A: inconclusive: 0.398 µM [inhibitor, partial curve, poor fit]

Q: Cc1cc(SCC(=O)c2ccc(O)c(O)c2)n2nc(C)c(-c3ccccc3)c2n1 was tested. Which Potency did it give?
A: active: 6.31 µM

Q: CC1CCN(c2oc(-c3ccccc3F)nc2C#N)CC1 was tested. Which Potency did it give?
A: inconclusive: 11.2 µM [inhibitor, partial curve, poor fit]

Q: How did the Potency turn out when O=C(NCc1nnnn1-c1ccc(F)c(F)c1)c1ccc2c(c1)OCO2 was run?
A: inconclusive: 35.5 µM [inhibitor, single point]

Q: For COc1ccc2[nH]c(C)c(C(=O)CN3CC(C)OC(C)C3)c2c1 (stereo unspecified), which Potency is on record?
A: inactive

Q: Which Potency does the source give for O=C(CSc1nc2ccccc2c(=O)n1-c1ccc(F)cc1)Nc1ccc2c(c1)CCC2 here?
A: inconclusive: 3.16 µM [inhibitor, full curve, poor fit]

Q: Which Potency does the source give for O=C(O)C1CCCCC1C(=O)Nc1cccc(C(=O)N2CCCCC2)c1 (stereo unspecified) here?
A: inconclusive: 6.31 µM [inhibitor, single point]

Q: How did the Potency turn out when Oc1c(Cl)cc(Cl)cc1/C=N/NC(=S)NC1CC2C=CC1C2 (stereo unspecified) was run?
A: active: 8.91 µM

Q: With COc1cccc(N2C(=O)NC(=O)/C(=C\c3ccc([N+](=O)[O-])s3)C2=O)c1 as the compound, how does the Potency read?
A: inconclusive: 7.08 µM [inhibitor, partial curve, poor fit]

Q: CCOc1ccc(N2C(=O)CC(Cc3cc(C)cc(C)c3)C2=O)cc1 (stereo unspecified) was tested. Which Potency did it give?
A: inactive

Q: Which Potency does the source give for O=S1(=O)C=C(SCc2ccc(Cl)c(Cl)c2)Nc2ccccc21 here?
A: active: 17.8 µM

Q: Which Potency does the source give for CCN(Cc1ccccc1)C(=S)Nc1cc(C(=O)OC)ccc1C(=O)OC here?
A: inactive

Q: Which Potency does the source give for Cc1ccc(S(=O)(=O)N2c3ccccc3-c3c(ssc3=S)C2(C)C)cc1 here?
A: inconclusive: 10 µM [inhibitor, partial curve]

Q: For Cc1ccc(OCCSc2nnc(NC(=O)c3ccco3)s2)cc1, which Potency is on record?
A: inconclusive: 3.98 µM [inhibitor, single point]

Q: CSc1ccc(Cl)c(C(=O)N(C)CC(=O)Nc2ccc(N3CCOCC3)cc2)c1 was tested. Which Potency did it give?
A: inconclusive: 31.6 µM [inhibitor, single point]

Q: How did the Potency turn out when C=CCNC(=S)Nc1ccc(OC(F)F)c(Cl)c1 was run?
A: inactive

Q: Which Potency does the source give for Cn1c(Oc2ccccc2NCc2cc(Br)ccc2O)cc(=O)n(C)c1=O here?
A: active: 22.4 µM
